The list shows a part of the results.
target: T1, OsWOX13 (Oryza sativa, UniProt Q5QMM3 1-267); assay: protein-binding microarray (RPBM); PBS, 2% BSA, 51.3 ng/ul salmon testes DNA, 50 uM zinc acetate, 200 nM TF, 25 C, 1 h; high values mean tight binding; settings: protein: recombinant; tags: N-terminal polyhistidine and DsRed monomer fusion (pET32a); label: CyDye5-dUTP incorporated in the synthesized complementary strand; 3' TTTTT single-stranded linker to array surface; dsDNA, one strand shown
T1 sequence: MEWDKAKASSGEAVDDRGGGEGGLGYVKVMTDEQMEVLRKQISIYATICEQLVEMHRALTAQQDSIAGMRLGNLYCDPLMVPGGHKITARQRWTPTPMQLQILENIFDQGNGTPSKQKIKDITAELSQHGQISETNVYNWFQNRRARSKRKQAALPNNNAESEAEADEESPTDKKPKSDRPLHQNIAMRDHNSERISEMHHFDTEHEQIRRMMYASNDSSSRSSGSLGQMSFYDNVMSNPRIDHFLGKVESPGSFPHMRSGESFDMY
Procedure, shortened: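 Per-feature fluorescence intensity (arbitrary units), read on an Axon 4000B scanner, is the binding signal. Transcription factors carrying an N-terminal polyhistidine tag and DsRed fusion were expressed in E. coli BL21-CodonPlus and purified on Ni–NTA. A custom Agilent array, made double-stranded by primer extension with Cy5-dUTP and blocked with 2% BSA, was incubated with 200 nM protein in PBS, 2% BSA, salmon testes DNA and 50 µM zinc acetate at 25 °C for 1 h and then washed.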

| Sequence | binding signal |
| --- | --- |
| CAGGAGTAATTACTAATTAGGGACCGAGAAGTCGAAGGAGCGGAGTCACCTAGTGCAG | 29800 fluorescence intensity (a.u.) |
| CTAAATTTTGGCTGGATTTCTTATGGATTTAATAGAGTTTCGGAGTCACCTAGTGCAG | 10900 fluorescence intensity (a.u.) |
| GCTTAATTAGCTTGTATTTAGTTGGTTAATTTAGTGTTGTCGGAGTCACCTAGTGCAG | 43600 fluorescence intensity (a.u.) |
| AATAATTTGATCCCATCAAATTTGTTCATGAACAACAAGACGGAGTCACCTAGTGCAG | 7370 fluorescence intensity (a.u.) |
| TAAATAAATTAATATAGAATTATGTTGTTCATATCAGTTCCGGAGTCACCTAGTGCAG | 11700 fluorescence intensity (a.u.) |
| CAGATGGACTGTGATAGCGAATTAGGAACAGGAGAGAAAGCGGAGTCACCTAGTGCAG | 7170 fluorescence intensity (a.u.) |
| GCGCGGTGGTGGTGGTGGTGGTTGCTGTGGTAGCGAGGGTCGGAGTCACCTAGTGCAG | 3320 fluorescence intensity (a.u.) |
| TAGTGATTGTCACTTCATTCGGAACCTCAATCACTTTCTGCGGAGTCACCTAGTGCAG | 40000 fluorescence intensity (a.u.) |
| CGGTAATTAAAATAGTCACAAACAGATCTCAGCTTACCGCCGGAGTCACCTAGTGCAG | 25000 fluorescence intensity (a.u.) |
| CATTGACAGGCATCAAGCTAGCTAGCTAGCCAACTGTCTGCGGAGTCACCTAGTGCAG | 30600 fluorescence intensity (a.u.) |
| AATTTATGAATTTGTTATCAATCACATAAATATTACATCTCGGAGTCACCTAGTGCAG | 16100 fluorescence intensity (a.u.) |
| CAGTGTACGTGATTTGTGGACATGCCAATCGCCACCGTCTCGGAGTCACCTAGTGCAG | 6460 fluorescence intensity (a.u.) |
| AGCTACAAACAGCAAGTTGACAGGCTATAATAATCTCATACGGAGTCACCTAGTGCAG | 3170 fluorescence intensity (a.u.) |
| GATAAACAGAGACAGAATTGTAATTAAGCGCGAAAATGAACGGAGTCACCTAGTGCAG | 22200 fluorescence intensity (a.u.) |
| AGGAAATTAAGGAAGCTGCAAATTGACTCTTTTGCCCTTCCGGAGTCACCTAGTGCAG | 6110 fluorescence intensity (a.u.) |
| GGTTAATTAAGTCTCAAGTCACGCATAGCTTAACAATGGCCGGAGTCACCTAGTGCAG | 40400 fluorescence intensity (a.u.) |
| CCTGATTCTGATTGGCGCCAACGTACGTACTGTACATGCGCGGAGTCACCTAGTGCAG | 56900 fluorescence intensity (a.u.) |
| AAAGAAGAGCAAGGATTGATTAGGGACGATTGAATCGGGACGGAGTCACCTAGTGCAG | 10500 fluorescence intensity (a.u.) |
| CTATTGATTTCTGCTGCTACTTTTCTATACTGTATTTTGTCGGAGTCACCTAGTGCAG | 15500 fluorescence intensity (a.u.) |
| TTTACGTTTCTGATTACCTAGGTATCTTGTTCTGTCTGTTCGGAGTCACCTAGTGCAG | 5410 fluorescence intensity (a.u.) |
| CTGTGAATTGTGAATTTGTGATTGGGCTCGAACGCGGGCCCGGAGTCACCTAGTGCAG | 21700 fluorescence intensity (a.u.) |
| CCTTTCCTAGCCAATCAGCCACCTTCTCCCAAACCAGTACCGGAGTCACCTAGTGCAG | 4060 fluorescence intensity (a.u.) |
| GATAATTGTCGATTAACATTAGCACCAAGCTTATTGGTGTCGGAGTCACCTAGTGCAG | 40000 fluorescence intensity (a.u.) |

— PMC7819943, “Rice protein-binding microarrays: a tool to detect cis-acting elements near promoter regions in rice”
